# According to patent publication EP0606463B1, “NEUROMEDIN B RECEPTOR ANTAGONISTS” (The Administrators of The Tulane Educational Fund, priority 1992, dated 1994):
# For at least one compound, name, drawing or mass did not settle the structure.
# Columns and labels:
# Type in all cases: binding
# [1] = biological target: T1, somatostatin receptors on AR 42J cells (Rattus norvegicus, UniProt P30680); test: Somatostatin membrane receptor assay (AR 42J cell membranes); details: method of Cheng, unit inferred, read-out: affinity, ^125I-[Tyr^11]SS-14
# T1 construct: endogenous in cells; host or cells: rat AR 42J pancreatic acinar cells (membranes)
# [2] = biological target: T2, NMB receptors on rat olfactory bulb membranes (Rattus norvegicus, UniProt P24053); test: NMB membrane receptor assay (rat olfactory bulb membranes); details: method of Cheng, unit inferred, read-out: affinity, ^125I-NMB
# T2 construct: Membranes were prepared from rat olfactory bulb (NMB membrane receptor assay); from tissue; host or cells: rat olfactory bulb membranes
# T2 sequence (P24053 1-390): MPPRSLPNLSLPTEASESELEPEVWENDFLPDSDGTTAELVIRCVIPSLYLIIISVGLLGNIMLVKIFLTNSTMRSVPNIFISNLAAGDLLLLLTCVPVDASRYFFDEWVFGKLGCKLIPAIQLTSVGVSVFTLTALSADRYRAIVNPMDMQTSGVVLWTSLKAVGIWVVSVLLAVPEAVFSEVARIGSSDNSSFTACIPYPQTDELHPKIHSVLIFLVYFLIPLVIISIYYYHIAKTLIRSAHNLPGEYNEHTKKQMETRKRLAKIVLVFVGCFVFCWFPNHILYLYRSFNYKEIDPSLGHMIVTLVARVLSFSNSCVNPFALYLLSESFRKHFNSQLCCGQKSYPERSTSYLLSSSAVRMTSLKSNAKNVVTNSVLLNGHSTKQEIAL
# mu opioid receptors = biological target: T3, mu opioid receptors (Rattus norvegicus, UniProt P33535); test: mu opioid membrane assay ([3H]DAGO, rat forebrain membranes); details: Rat Forebrain membranes; method of Cheng; unit inferred; read-out: affinity, [^3H]DAGO
# T3 construct: rat forebrain (TRH, mu and delta opioid membrane assays); from tissue; host or cells: rat forebrain membranes
# T3 sequence (P33535 whole entry): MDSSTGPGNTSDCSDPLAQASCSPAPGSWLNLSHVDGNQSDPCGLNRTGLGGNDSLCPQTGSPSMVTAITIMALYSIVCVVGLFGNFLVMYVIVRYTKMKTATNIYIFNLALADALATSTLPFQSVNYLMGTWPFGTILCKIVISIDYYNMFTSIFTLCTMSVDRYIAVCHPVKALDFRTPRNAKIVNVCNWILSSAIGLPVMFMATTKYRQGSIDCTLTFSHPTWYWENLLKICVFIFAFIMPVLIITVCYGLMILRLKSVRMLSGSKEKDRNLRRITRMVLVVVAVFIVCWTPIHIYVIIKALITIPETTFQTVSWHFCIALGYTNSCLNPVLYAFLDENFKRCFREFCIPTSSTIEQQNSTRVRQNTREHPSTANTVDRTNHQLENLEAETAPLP
# T1 sequence (P30680 whole entry): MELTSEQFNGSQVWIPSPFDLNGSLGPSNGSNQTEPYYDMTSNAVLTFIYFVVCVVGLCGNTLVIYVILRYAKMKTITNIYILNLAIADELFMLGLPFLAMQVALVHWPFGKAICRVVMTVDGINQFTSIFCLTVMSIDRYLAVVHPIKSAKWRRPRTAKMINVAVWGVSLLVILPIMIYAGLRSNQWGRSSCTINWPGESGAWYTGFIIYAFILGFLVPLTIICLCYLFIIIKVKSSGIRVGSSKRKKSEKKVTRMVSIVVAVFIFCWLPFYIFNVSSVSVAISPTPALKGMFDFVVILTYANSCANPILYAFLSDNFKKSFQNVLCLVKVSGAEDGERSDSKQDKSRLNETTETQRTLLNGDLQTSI
compound,measurement,setting,value
"CSCC[C@H](NC(=O)[C@H](CC(C)C)NC(=O)[C@H](Cc1c[nH]cn1)NC(=O)CNC(=O)[C@@H](NC(=O)[C@H](C)NC(=O)[C@H](Cc1c[nH]c2ccccc12)NC(=O)[C@H](Cc1c[nH]cn1)NC(=O)[C@H](CC(N)=O)NC(=O)CNC(=O)[C@H](CCCN=C(N)N)NC(=O)[C@@H]1CCCN1C(=O)[C@H](Cc1ccc(O)cc1)NC(=O)[C@H](CCSC)NC(=O)[C@H](CCCCN)NC(=O)[C@@H](NC(=O)[C@H](CC(C)C)NC(=O)[C@@H](NC(=O)[C@@H](NC(=O)CNC(=O)CNC(=O)CNC(=O)[C@H](C)NC(=O)[C@@H]1CCCN1C(=O)[C@H](CC(C)C)NC(=O)[C@@H]1CCCN1C(=O)[C@@H](N)C(C)C)[C@@H](C)O)C(C)C)[C@@H](C)O)C(C)C)C(N)=O [GRP, gastrin-releasing peptide]",Ki,[1],> 10 µM
same,Ki,[2],0.297 ± 0.015 µM
same,Ki,mu opioid receptors,> 10 µM
